Results on 33 variants are retold here after the GPR68 mutational scans of Howard et al. (2025).

Scores whose standard error is large were omitted. Not listed are two conditions whose scores span a narrow range. Names with del lack the residues named; names with ins carry added residues between the positions named. For some of these results: The data file names ogerin without a concentration.

B1: GPR68, Q15743 (parent)
chain: MGNITADNSSMSCTIDHTIHQTLAPVVYVTVLVVGFPANCLSLYFGYLQIKARNELGVYLCNLTVADLFYICSLPFWLQYVLQHDNWSHGDLSCQVCGILLYENIYISVGFLCCISVDRYLAVAHPFRFHQFRTLKAAVGVSVVIWAKELLTSIYFLMHEEVIEDENQHRVCFEHYPIQAWQRAINYYRFLVGFLFPICLLLASYQGILRAVRRSHGTQKSRKDQIQRLVLSTVVIFLACFLPYHVLLLVRSVWEASCDFAKGVFNAYHFSLLLTSFNCVADPVLYCFVSETTHRDLARLRGACLAFLTCSRTGRAREAYPLGAPEASGKSGAQGEEPELLTKLHPAFQTPNSPGSGGFPTGRLA

Variants of B1 are the subject of series [1]. The series is described as follows: cAMP reporter score (Enrich2 score, wild type = 0); higher = more signal; HEK293T, FACS bins.
In series [2] the parent is B1. The series is described as follows: surface expression score (Enrich2 score, wild type = 0); higher = more signal; HEK293T, FACS bins.

With Q206A, the cAMP reporter score came to 1.68 in series [1] (pH 5.5); 2.2 in series [1] (pH 6, modulator: ogerin); 1.08 in series [1] (pH 6.5, modulator: ogerin). For the same variant, in series [2], the surface expression score is 3.27.

In the case of K220Q, the cAMP reporter score in series [1] (pH 5.5) was 0.858; in series [1] (pH 6), 0.46. The surface expression score in series [2] is 0.383.

Turning to K220V, the cAMP reporter score in series [1] (pH 5.5) was 0.519; in series [1] (pH 6), -0.977; in series [1] (pH 6, modulator: ogerin), -0.587; in series [1] (pH 6.5, modulator: ogerin), -1.37. Further, in series [2], the surface expression score was -0.128.

On to K220N, for which the cAMP reporter score was -1.11 in series [1] (pH 5.5); -0.966 in series [1] (pH 6); -0.682 in series [1] (pH 6, modulator: ogerin); -1.91 in series [1] (pH 6.5, modulator: ogerin). In addition, in series [2], the surface expression score was -0.274.

Consider K220M, for which the cAMP reporter score is -0.422 in series [1] (pH 5.5); -0.663 in series [1] (pH 6, modulator: ogerin); -0.715 in series [1] (pH 6.5, modulator: ogerin). Also, in series [2], the surface expression score was found to be 0.52.

As to K220S, the cAMP reporter score in series [1] (pH 5.5) was -0.005; in series [1] (pH 6, modulator: ogerin), -2.18; in series [1] (pH 6.5, modulator: ogerin), 0.354. Also, in series [2], the surface expression score was -1.03.

As to K220I, the cAMP reporter score was -0.105 in series [1] (pH 5.5); -1.09 in series [1] (pH 6); -0.728 in series [1] (pH 6, modulator: ogerin); -0.905 in series [1] (pH 6.5, modulator: ogerin). The surface expression score in series [2] is -0.423.

For K220T, the cAMP reporter score in series [1] (pH 5.5) is -0.571; in series [1] (pH 6), -1.46; in series [1] (pH 6, modulator: ogerin), -0.565; in series [1] (pH 6.5, modulator: ogerin), -0.867. Moreover, in series [2], the surface expression score worked out at 0.493.

In the case of K220P, the cAMP reporter score was -0.253 in series [1] (pH 5.5); -0.93 in series [1] (pH 6); 0.391 in series [1] (pH 6, modulator: ogerin); -0.363 in series [1] (pH 6.5, modulator: ogerin). In series [2], the surface expression score was found to be 0.478.

As to K220A, the cAMP reporter score was 0.957 in series [1] (pH 5.5); 0.218 in series [1] (pH 6); -0.018 in series [1] (pH 6, modulator: ogerin); 0.981 in series [1] (pH 6.5, modulator: ogerin). The surface expression score in series [2] was determined as 1.26.

As for K220R, the cAMP reporter score in series [1] (pH 5.5) is 0.52; in series [1] (pH 6), 0.007; in series [1] (pH 6.5, modulator: ogerin) it was -1.01. Moreover, the surface expression score in series [2] is 0.952.

As to K220G, the cAMP reporter score in series [1] (pH 5.5) is 0.149; in series [1] (pH 6, modulator: ogerin) it was -1.03. Moreover, the surface expression score in series [2] came out at 0.505.

On to K220D, for which the cAMP reporter score in series [1] (pH 5.5) was 0.157; in series [1] (pH 6), -0.269; in series [1] (pH 6, modulator: ogerin), -0.677.

K220C: the cAMP reporter score was -1.16 in series [1] (pH 5.5); -0.641 in series [1] (pH 6); -1.28 in series [1] (pH 6, modulator: ogerin); -1.3 in series [1] (pH 6.5, modulator: ogerin). Further, the surface expression score in series [2] is -0.97.

Take K220L: the cAMP reporter score in series [1] (pH 5.5) was 0.027; in series [1] (pH 6), 0.094; in series [1] (pH 6, modulator: ogerin), -0.746; in series [1] (pH 6.5, modulator: ogerin), -1.23. Moreover, the surface expression score in series [2] is 0.047.

As for K220H, the cAMP reporter score was 0.013 in series [1] (pH 5.5) and -0.124 in series [1] (pH 6.5, modulator: ogerin). The surface expression score in series [2] worked out at 0.333.

Regarding K220F, the cAMP reporter score was -0.414 in series [1] (pH 5.5); -1.01 in series [1] (pH 6); -0.971 in series [1] (pH 6, modulator: ogerin); -1.08 in series [1] (pH 6.5, modulator: ogerin). Further, the surface expression score in series [2] was 0.883.

As to S204_Q206del, the cAMP reporter score in series [1] (pH 5.5) was -1.54; in series [1] (pH 6) it was -1.12; in series [1] (pH 6, modulator: ogerin), -1.29; in series [1] (pH 6.5, modulator: ogerin), -1.36. For the same variant, the surface expression score in series [2] is -2.54.

V212_R214del: the cAMP reporter score is -1.35 in series [1] (pH 5.5); -1.32 in series [1] (pH 6); -1.67 in series [1] (pH 6, modulator: ogerin); -1.4 in series [1] (pH 6.5, modulator: ogerin). In series [2], the surface expression score was -0.115.

On to H216_G217insG, for which the cAMP reporter score is -0.379 in series [1] (pH 5.5); -0.624 in series [1] (pH 6, modulator: ogerin); -2.7 in series [1] (pH 6.5, modulator: ogerin). The surface expression score in series [2] worked out at 1.99.

Regarding S215N, the cAMP reporter score was -0.685 in series [1] (pH 5.5); -1.05 in series [1] (pH 6); -1.35 in series [1] (pH 6, modulator: ogerin); -1.07 in series [1] (pH 6.5, modulator: ogerin). Moreover, the surface expression score in series [2] came to 1.02.

On to S215V, for which the cAMP reporter score in series [1] (pH 5.5) is -1.02; in series [1] (pH 6), -0.96; in series [1] (pH 6, modulator: ogerin) it was -2.01; in series [1] (pH 6.5, modulator: ogerin), -1.22. Further, the surface expression score in series [2] is -0.239.

For S215R, the cAMP reporter score is -1.88 in series [1] (pH 5.5); -1.26 in series [1] (pH 6); -2.08 in series [1] (pH 6, modulator: ogerin); -1.41 in series [1] (pH 6.5, modulator: ogerin). In series [2], the surface expression score was determined as 0.231.

For S215F, the cAMP reporter score was -1.49 in series [1] (pH 5.5); -1.18 in series [1] (pH 6); -1.89 in series [1] (pH 6, modulator: ogerin); -1.46 in series [1] (pH 6.5, modulator: ogerin). The surface expression score in series [2] was -1.53.

Turning to S215M, the cAMP reporter score was -0.451 in series [1] (pH 5.5); -1.23 in series [1] (pH 6); -0.224 in series [1] (pH 6, modulator: ogerin); 0.164 in series [1] (pH 6.5, modulator: ogerin). Also, in series [2], the surface expression score is -0.008.

As to S215C, the cAMP reporter score in series [1] (pH 5.5) is -0.985; in series [1] (pH 6) it was -1.03; in series [1] (pH 6, modulator: ogerin) it was -1.53; in series [1] (pH 6.5, modulator: ogerin), -1.36. The surface expression score in series [2] came out at 0.693.

Take S215E: the cAMP reporter score in series [1] (pH 5.5) was found to be 1.02; in series [1] (pH 6, modulator: ogerin), 1.15; in series [1] (pH 6.5, modulator: ogerin) it was 2.32.

As for S215T, the cAMP reporter score in series [1] (pH 5.5) is -0.705; in series [1] (pH 6.5, modulator: ogerin) it was -1.57. Moreover, the surface expression score in series [2] stood at 0.406.

Consider S215W, for which the cAMP reporter score in series [1] (pH 5.5) is -1.48; in series [1] (pH 6), -1.08; in series [1] (pH 6, modulator: ogerin), -1.34; in series [1] (pH 6.5, modulator: ogerin) it was -1.48. Further, the surface expression score in series [2] was -0.062.

S215A: the cAMP reporter score was -0.738 in series [1] (pH 5.5); -0.583 in series [1] (pH 6); -1.73 in series [1] (pH 6, modulator: ogerin); -1.14 in series [1] (pH 6.5, modulator: ogerin). Moreover, the surface expression score in series [2] turned out to be 0.005.

S215P: the cAMP reporter score in series [1] (pH 5.5) is -0.857; in series [1] (pH 6) it was -0.894; in series [1] (pH 6, modulator: ogerin), -2.1; in series [1] (pH 6.5, modulator: ogerin) it was -0.993. In addition, in series [2], the surface expression score was determined as 0.228.

For S215Y, the cAMP reporter score in series [1] (pH 5.5) is -1.37; in series [1] (pH 6), -1.58; in series [1] (pH 6, modulator: ogerin), -1.45; in series [1] (pH 6.5, modulator: ogerin), -1.09. In addition, the surface expression score in series [2] is -0.225.

Regarding S215Q, the cAMP reporter score in series [1] (pH 5.5) is -1.51; in series [1] (pH 6) it was -1.03; in series [1] (pH 6, modulator: ogerin) it was -1.84; in series [1] (pH 6.5, modulator: ogerin), -0.731. For the same variant, the surface expression score in series [2] was 0.47.
